Data from paper PMC6919601, “Identification of Plasmodium dipeptidyl aminopeptidase allosteric inhibitors by high throughput screening” (PLoS ONE, 2019).
Hit rate of the full screen: of about 110,000 compounds, about 230 (0.21%) showed an effect of 50% or more. The list shows a part of the results.

These compounds were tested against DPAP1 (Plasmodium falciparum, UniProt Q8IIJ9) (assay: primary screen, percent inhibition; read by cleavage of a fluorogenic dipeptide substrate; higher = more effect of the substance).
Sequence of DPAP1 (Q8IIJ9 whole entry, looked up): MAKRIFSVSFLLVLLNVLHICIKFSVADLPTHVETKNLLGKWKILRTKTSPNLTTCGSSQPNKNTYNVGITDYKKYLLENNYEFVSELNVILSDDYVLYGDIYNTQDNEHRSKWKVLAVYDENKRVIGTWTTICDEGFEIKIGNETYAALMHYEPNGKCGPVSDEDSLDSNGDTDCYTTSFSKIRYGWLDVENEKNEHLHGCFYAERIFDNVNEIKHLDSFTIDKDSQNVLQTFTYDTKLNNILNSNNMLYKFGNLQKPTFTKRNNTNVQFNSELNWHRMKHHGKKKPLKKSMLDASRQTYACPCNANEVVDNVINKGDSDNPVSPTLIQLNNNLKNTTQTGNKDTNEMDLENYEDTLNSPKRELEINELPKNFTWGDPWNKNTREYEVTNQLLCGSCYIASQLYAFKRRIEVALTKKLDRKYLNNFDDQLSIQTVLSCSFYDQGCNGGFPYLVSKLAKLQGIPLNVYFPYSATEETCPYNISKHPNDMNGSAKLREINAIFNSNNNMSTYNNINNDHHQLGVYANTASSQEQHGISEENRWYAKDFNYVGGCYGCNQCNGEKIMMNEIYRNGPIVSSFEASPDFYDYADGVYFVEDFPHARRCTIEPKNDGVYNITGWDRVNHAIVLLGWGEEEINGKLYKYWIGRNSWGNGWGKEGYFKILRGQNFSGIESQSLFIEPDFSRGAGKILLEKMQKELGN
Parameters: species or system P. falciparum D10 trophozoite lysates; single well
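Further: 30 min substrate incubation versus DMSO and 10 µM JCP410 controls.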

Structure (SMILES)	% Inhibition @ 10 uM [%]
CN1C(=O)c2ccccc2C(C(=O)NCCCN(Cc2ccco2)C2CCCC2)C1c1cccs1 (stereo not drawn)	-2.97
Fc1cccc(CN2CCc3c([nH]c4ccccc34)C2)c1	-0.197
O=C(NCc1ccco1)c1cc(-c2ccc(Br)cc2)on1	2.65
COc1ccc(C2c3[nH]c4ccccc4c3CC3C(=O)N(C)C(=S)N32)cc1OC (stereo not drawn)	3.15
Cc1c(Cl)cccc1N(CC(=O)NCC1CCCO1)S(=O)(=O)c1ccccc1 (stereo not drawn)	11.2
Cc1ccc(C(=O)Nc2nsc(-c3ccccc3)n2)cc1	-0.95
CCOC(=O)N1CCN(c2c(NC3CCC(C)CC3)c(=O)c2=O)CC1 (stereo not drawn)	1.73
O=C(c1ccco1)N1CCN(C(=O)c2c3c(nc4ccccc24)C(=O)N(C2CCCCC2)C3)CC1	-0.12
Cc1ccc(S(=O)(=O)n2nc(C)cc2C)cc1	2.45
CC(=O)Nc1ccc(-c2cc3ccccc3o2)cc1	2.09
Cc1ccc(CN(CC(=O)N2CCCCCC2)S(=O)(=O)c2ccc(Br)cc2)cc1	-4.33
COc1ccc2nc3sc(C(=O)NCCCN4CC(C)CC(C)C4)cc3cc2c1 (stereo not drawn)	-2.44
CCCOc1ccc(-c2nc3s/c(=C\c4cc(OC)ccc4OC)c(=O)n3n2)cc1	3.8
c1ccc(-c2nc(N3CCCCCC3)nc(-n3ccnc3)n2)cc1	-2.5
Cn1c(CCc2ccccc2)nnc1SCc1nc(-c2cccs2)no1	-7.86
O=C(Nc1ccccc1C(=O)N1CCCCC1)c1ccc(Cl)cc1	0.563
CC1CN(S(=O)(=O)c2ccc(C3CCCCC3)cc2)CC(C)O1 (stereo not drawn)	0.457
C=CCOC(=O)C1=C(C)N=C(C)/C(=C(/O)OCC=C)C1c1cccs1 (stereo not drawn)	-3.75
COc1ccc(-c2nc3n(n2)C(c2ccc4c(c2)OCO4)C2=C(O)CC(C)(C)CC2=N3)cc1 (stereo not drawn)	3.59
c1ccc2c(OCCCCCN3CCCC3)cccc2c1	0.273
CC(C)c1nnc(NC(=O)c2cccc([N+](=O)[O-])c2)s1	0.0345

Structure (SMILES)	% Inhibition @ 10 uM [%]
C=CCOC(=O)c1sc(N2C(=O)c3oc4ccccc4c(=O)c3C2c2ccc(C)o2)nc1C (stereo not drawn)	2.16
Cc1nc2c(-c3ccccc3)c(C)nn2c(N)c1-c1ccccc1	1
COc1cc(C2CC(c3ccc(Cl)cc3)Nc3nnnn32)cc(OC)c1OC (stereo not drawn)	0.0842
COc1ccc2cc(C(=O)O)sc(=O)c2c1OC	0.221
CCn1nc(C)c(CCNC(=O)c2cc3c(=O)n(Cc4ccc(OC)cc4)ccc3nc2C)c1C	0.0575
Cc1ccc(-c2cc(C(=O)N3CCOCC3)[nH]n2)cc1C	-1.63
CCN(CC)CCNc1ncnc2onc(-c3ccc(Cl)cc3)c12	-13.7
COc1ccc(C(=O)Nc2nc3nc(C)c(Cl)c(O)n3n2)cc1OC	2.05
CCNC(=O)C(Cc1c[nH]c2ccccc12)NC(=O)OC(C)(C)C (stereo not drawn)	-0.992
C=C(C)Cn1c(S)nnc1-c1ccccc1	3.44
COc1ccc(CNC(=O)C2CCC(=O)N2C(C)C)cc1 (stereo not drawn)	-1.21
COc1ccc(-c2csc(NC(=O)C3CC=CCC3C(=O)O)n2)cc1 (stereo not drawn)	-7.14
Cc1ccc2oc(=O)c3cnn(CC(=O)Nc4nc5ccccc5s4)c3c2c1	1.62
CCOC(=O)c1nc2nc(C)cc(O)n2n1	-9.24
CC1=C(c2ccc(C(C)C)cc2)S(=O)(=O)N=C1NCC(C)c1ccccc1 (stereo not drawn)	0.623
CCOc1ccc(/C=C2\N=C(c3ccc(OC)c(OC)c3)OC2=O)cc1	-2.27
COc1cccc(C2C(C#N)=C(N)N(c3nc[nH]n3)C3=C2C(=O)CC(C)(C)C3)c1OC (stereo not drawn)	3.99
CC(C)(C)c1ccc(C(N)C(=O)O)s1 (stereo not drawn)	-7.35
COc1cc(C(=O)N2CCN(C(=O)c3ccncc3)CC2)cc(OC)c1OC	-8.11
CC(CCc1ccccc1)N1CCN(Cc2ccccc2)CC1 (stereo not drawn)	-1.81
CC(NC(=O)c1ccc2nc(N3CCOCC3)sc2c1)c1ccc2c(c1)OCCO2 (stereo not drawn)	-2.37

Structure (SMILES)	% Inhibition @ 10 uM [%]
COc1ccc(OC)c(C2C=C(c3ccc(C)c(C)c3)Nc3nnnn32)c1 (stereo not drawn)	-8.88
Cc1cccn2c(=O)c3cc(C#N)c(=N)n(Cc4ccncc4)c3nc12	0.722
O=C(NC1CCCCCC1)c1ccc([N+](=O)[O-])cc1	-3.04
COc1ccc(NS(=O)(=O)c2ccc(C(C)C)cc2)cc1	0.565
CC(C)n1c(Sc2nncn2C)nc2c1c(=O)n(C)c(=O)n2C	1.52
c1ccc(-c2cn3nc(C4CCCCC4)sc3n2)cc1	-2.71
O=C(N/C(=C\c1cccc(Br)c1)C(=O)N1CCCCC1)c1ccco1	2.38
Cc1nn(CCC(=O)NC2CCCCCC2)c(=O)c2nn(-c3ccccc3)c(C)c12	-10.6
Oc1ccccc1Cn1c2ccccc2c2ccccc21	0.135
NC(=O)C1CCN(c2ncnc3onc(-c4ccc(Cl)cc4)c23)CC1	1.15
CN1CCN(C2=NC(=O)/C(=C/c3ccc(Br)cc3)S2)CC1	-0.48
CCO/C(O)=C/C1=NCCCCC1	-3.33
COc1cc(C2C(C(=O)c3ccc(Cl)cc3)=C(O)C(=O)N2c2nc3ccccc3s2)ccc1O (stereo not drawn)	-1.33
CC(C)(C)NC(=O)CCNS(=O)(=O)c1cc(Br)cnc1N	-6.98
O=C(Nc1ccccc1O)/C(=C\c1ccsc1)NC(=O)c1ccccc1	-0.305
Cn1cnc2c(=O)oc3ccc(S(=O)(=O)N4CCN(C5CCCCC5)CC4)cc3c21	3
CC(C)(C)c1ccc(N2C(=O)CC(=O)NC2=O)cc1	-3.78
O=C1CN(S(=O)(=O)c2cccc3cccnc23)CC(=O)N1CCc1ccccc1	0.0654
O=[N+]([O-])c1ccc(CNc2ccc(Br)cc2)cc1	-2.21
COc1ccc(-c2c3c(=O)n(C)c(=O)n(C)c3cn2NC(C)=O)cc1	2.95
COc1cc2c(C(=O)N3CCOCC3)c(CN3CCOCC3)n(C)c2cc1Br	-3.34
